The list shows a part of the results.

The assay concerns the target T1, OsWOX13 (Oryza sativa, UniProt Q5QMM3 1-267).
T1 sequence: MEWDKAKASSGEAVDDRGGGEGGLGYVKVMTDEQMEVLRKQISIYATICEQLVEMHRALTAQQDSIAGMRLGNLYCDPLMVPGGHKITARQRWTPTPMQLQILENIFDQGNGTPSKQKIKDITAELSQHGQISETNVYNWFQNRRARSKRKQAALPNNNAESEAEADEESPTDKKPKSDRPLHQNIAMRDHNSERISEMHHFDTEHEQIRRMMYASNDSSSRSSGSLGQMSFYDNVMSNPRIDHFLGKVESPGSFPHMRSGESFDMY
Put plainly: protein-binding microarray (RPBM); PBS, 2% BSA, 51.3 ng/ul salmon testes DNA, 50 uM zinc acetate, 200 nM TF, 25 C, 1 h; high values mean tight binding. Particulars: protein: recombinant; tags: N-terminal polyhistidine and DsRed monomer fusion (pET32a); label: CyDye5-dUTP incorporated in the synthesized complementary strand; 3' TTTTT single-stranded linker to array surface; dsDNA, one strand shown. In short, it runs like this: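 Binding signal here means per-feature fluorescence intensity in arbitrary units. The values were read on an Axon 4000B scanner after a custom Agilent array, double-stranded by primer extension with Cy5-dUTP, was incubated with 200 nM protein at 25 °C for 1 h in PBS with 2% BSA, salmon testes DNA and 50 µM zinc acetate, then washed. The proteins were transcription factors with an N-terminal polyhistidine tag and DsRed, expressed in E. coli BL21-CodonPlus and purified on Ni–NTA.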
“AACAAATTACTAGTTGCTATTTGAATCGATTCCCTTGCCTCGGAGTCACCTAGTGCAG”: the binding signal was 10100 fluorescence intensity (a.u.).

Turning to “CACATTAATTAATCTCCCGCGAGGAAACATCTATCCCGGTCGGAGTCACCTAGTGCAG”, the binding signal is 31700 fluorescence intensity (a.u.).

On to “GAAAACAAATTGGGATGTAGTAGTTCCGATTTCGATTAGACGGAGTCACCTAGTGCAG”, for which the binding signal is 6980 fluorescence intensity (a.u.).

Regarding “TCGCTATAATTGACAGCGACCCTACCTTGGGCCACCGGACCGGAGTCACCTAGTGCAG”, the binding signal is 57100 fluorescence intensity (a.u.). To “CAAAATAAACTAGTATTATATCAACAAGCATGCTTAAGTCCGGAGTCACCTAGTGCAG” belongs 3740 fluorescence intensity (a.u.); to “ATATAGATAGACAGATCTCTATCAACTCTGAAACTAACCTCGGAGTCACCTAGTGCAG”, 19900 fluorescence intensity (a.u.).

On to “TGTTCAATCTCGGTTAACTGGAACCAATTTATGAAAAGGTCGGAGTCACCTAGTGCAG”, for which the binding signal was 16300 fluorescence intensity (a.u.). As for “GAGATAGATAATAGGAGTATTGTTTATTTTATATGGGTAGCGGAGTCACCTAGTGCAG”, the binding signal was 4040 fluorescence intensity (a.u.). Turning to “ATGGTTTGACTTGGATAAACTGGATTCTTAACTCAAACCTCGGAGTCACCTAGTGCAG”, the binding signal is 3410 fluorescence intensity (a.u.). To “CCAAACAGAAAATTGGATCGCCGTATCCAATAAAATATGGCGGAGTCACCTAGTGCAG” belongs 4990 fluorescence intensity (a.u.); to “GAATATATATATTCAATTATTGATTTGATGAAACTAATTTCGGAGTCACCTAGTGCAG”, 10500 fluorescence intensity (a.u.). Next, “ATCAAATTAGATACGTTTCACGTTTCAGTACTATGAATTTCGGAGTCACCTAGTGCAG”: 4210 fluorescence intensity (a.u.); “CGCCGTAACAATCAGAACCAATCATGCTCTATGTGTAGTTCGGAGTCACCTAGTGCAG”: 30300 fluorescence intensity (a.u.); “TAAAATTACCAAATATTGGTAAGCCTAATTTAGGCCTCAACGGAGTCACCTAGTGCAG”: 4120 fluorescence intensity (a.u.). To “ATAATTAAACAATGATACTTGATTATACTCTTTGATATTACGGAGTCACCTAGTGCAG” belongs 16900 fluorescence intensity (a.u.); to “AAAATTGTTGCGTGACTGAATGGAGATTTCAGATTTCTGCCGGAGTCACCTAGTGCAG”, 19000 fluorescence intensity (a.u.); to “TAATATAGATTGATTTTGATGTAATTGTTTTCTGACTATACGGAGTCACCTAGTGCAG”, 20800 fluorescence intensity (a.u.).

Take “ACAAACTAAATATGTCATTACCAACACAACCTTGCGAATTCGGAGTCACCTAGTGCAG”: the binding signal is 3240 fluorescence intensity (a.u.). Next, “AATTAATCAGGATACAATTAATAATATACCAGTCACATTTCGGAGTCACCTAGTGCAG”: 10600 fluorescence intensity (a.u.). Next, “AAGAATTAAACTGATGAAGTGTCCATGATAGCGGACGCACCGGAGTCACCTAGTGCAG”: 8740 fluorescence intensity (a.u.); “CAAACAAGAAAATAACTGTTAATTTATCTATGACTGTATGCGGAGTCACCTAGTGCAG”: 9180 fluorescence intensity (a.u.).

For the sequence “CATTTGCTAATGACGGATTAATTAGGGTTTATAAATTCGTCGGAGTCACCTAGTGCAG”, the binding signal is 24400 fluorescence intensity (a.u.). To “AGTAATTGACTAAGATTGATAGGTTAATTCTTTACTACTTCGGAGTCACCTAGTGCAG” belongs 44400 fluorescence intensity (a.u.); to “ACAAAATTTTCATCGTCATCCACGATCCAACCACCAGCTGCGGAGTCACCTAGTGCAG”, 3780 fluorescence intensity (a.u.). To “ATAAAATTGGCTATATGCTGAAGTTGGATAGCTGATAGGCCGGAGTCACCTAGTGCAG” belongs 6240 fluorescence intensity (a.u.). As for “TGTAAATCCTAAAATTACATACTAATTACATATGTAAGTGCGGAGTCACCTAGTGCAG”, the binding signal was 14900 fluorescence intensity (a.u.).

Turning to “CTCGTTGATTTCTCTTGCGCCAGATTAAGCGAACAATGCCCGGAGTCACCTAGTGCAG”, the binding signal is 13500 fluorescence intensity (a.u.). To “TTTTAATTAGTAATGTGATATCAAACATATTGACACCGTTCGGAGTCACCTAGTGCAG” belongs 41900 fluorescence intensity (a.u.). With “TGCAATCATGGACCAATATAGATAGATCGATGTGCATTGCCGGAGTCACCTAGTGCAG”, the binding signal is 3810 fluorescence intensity (a.u.). Next, “CTTAATTTCAGCTTACTGATCAGTGATCACTGAGCTAGCTCGGAGTCACCTAGTGCAG”: 15500 fluorescence intensity (a.u.); “TTTTACAATCATGATGCTCACTCATGGTGCTAATGACTTGCGGAGTCACCTAGTGCAG”: 4140 fluorescence intensity (a.u.). Next, “TTTGGCGCAACAGAAGCTGATTGGGGAGCTGGATACGGTTCGGAGTCACCTAGTGCAG”: 5500 fluorescence intensity (a.u.). Next, “TAAAATTGGGCGTGAGATTTTCTGTGGCTAAGAGGAGTAGCGGAGTCACCTAGTGCAG”: 6280 fluorescence intensity (a.u.); “CTCGAGGTCAAATCTTGATTAATTATGCTAATTAACGCGACGGAGTCACCTAGTGCAG”: 16800 fluorescence intensity (a.u.). For “CATGATTAAGAGATCAAGACAAGTACATTTGGGCCCTATCCGGAGTCACCTAGTGCAG”, the binding signal is 16500 fluorescence intensity (a.u.).

For “CAACCAATCAATCACATACGTGGACAACTGCAGAAAATGCCGGAGTCACCTAGTGCAG”, the binding signal is 39800 fluorescence intensity (a.u.).

Take “CTTTTAATTTGTCTTCAGAGAATCGAAGATATCAAATGGACGGAGTCACCTAGTGCAG”: the binding signal is 5350 fluorescence intensity (a.u.). Consider “TTTAATTTTATTAAATTCTCCATGGTTAATTCTGCTCTTTCGGAGTCACCTAGTGCAG”, for which the binding signal was 17400 fluorescence intensity (a.u.).

In the case of “CCCTTAATGTAAATAGGTCTTCAGGAGAGAGAATACTCGGCGGAGTCACCTAGTGCAG”, the binding signal was 5230 fluorescence intensity (a.u.).

For “ATTTGTTAATTATTTAAATAACTTCTTATATTTTCGTAGACGGAGTCACCTAGTGCAG”, the binding signal was 23500 fluorescence intensity (a.u.). For the sequence “AATTGACGGAGATAGATTCTAATAGCTCGAGTGGACGTCCCGGAGTCACCTAGTGCAG”, the binding signal is 7650 fluorescence intensity (a.u.). To “TCATCAGCAATCACAACTGAATTTACAGTCTATAGGCTCCCGGAGTCACCTAGTGCAG” belongs 5400 fluorescence intensity (a.u.); to “TGGTAAAACAAATTGAAGGAGAGTAACATGAACTTATTCGCGGAGTCACCTAGTGCAG”, 7020 fluorescence intensity (a.u.); to “AATTCCGATTAGAATTGGATTGATAAATCCGTTAAAACAACGGAGTCACCTAGTGCAG”, 10900 fluorescence intensity (a.u.). Next, “ATTAGTTCATAATTAACCATAAATGCTACCATGCTAATGACGGAGTCACCTAGTGCAG”: 5410 fluorescence intensity (a.u.); “TTAATTAGGAGATATTGATTGATAAACGTACCTCTTGGTGCGGAGTCACCTAGTGCAG”: 65300 fluorescence intensity (a.u.). To “TAAGGGTTAATTGGATCCACGCTATTGCAGATATGTCAATCGGAGTCACCTAGTGCAG” belongs 14300 fluorescence intensity (a.u.); to “GTTCTAGACTTTAATTATCTGTATGTATAATATATATATCCGGAGTCACCTAGTGCAG”, 4680 fluorescence intensity (a.u.). For the sequence “TTAATAGCCATCTTGTCAATTTAAATTCACTGTAATTTCACGGAGTCACCTAGTGCAG”, the binding signal was 13300 fluorescence intensity (a.u.). To “TATACACATACTGATTAATTAATGGCTGTTGATTAATTAGCGGAGTCACCTAGTGCAG” belongs 33500 fluorescence intensity (a.u.); to “ATTGTCATAAAATTTCATAATTGTATGCATGGTCACCGGTCGGAGTCACCTAGTGCAG”, 3710 fluorescence intensity (a.u.). To “AAAATTTTAACTATTAATAATTTCTCAAACCGTTTGGTTTCGGAGTCACCTAGTGCAG” belongs 15800 fluorescence intensity (a.u.); to “TTAAATAGATGCACATATTTGACAACTTAAATATGAACAACGGAGTCACCTAGTGCAG”, 5060 fluorescence intensity (a.u.).

In the case of “AGTTTGATGGATTTCACCCGGAGATACACCGTACGATTTACGGAGTCACCTAGTGCAG”, the binding signal was 8080 fluorescence intensity (a.u.).
